B1: unnamed (peptide)
chain: AISEVIGKITA
B2: unnamed (peptide)
chain: RVSDINFTL
B3: unnamed (peptide)
chain: LLIKQVVEV
B4: unnamed (peptide)
chain: VFDDVQKTL
B5: unnamed (peptide)
chain: RLDELGGVYL
B6: unnamed (peptide)
chain: KLWDIINVNI
B7: unnamed (peptide)
chain: AQFEHTILL
B8: unnamed (peptide)
chain: KLLDTMVDTFL
B9: unnamed (peptide)
chain: SLENKILAV
B10: unnamed (peptide)
chain: RLLDSEIKI
B11: unnamed (peptide)
chain: FISERVEVV
B12: unnamed (peptide)
chain: SLFGSPPTSV
B13: unnamed (peptide)
chain: SLLESVQKL
B14: unnamed (peptide)
chain: RLMNETTAVAL
B15: unnamed (peptide)
chain: FMFDEKLVTV
B16: unnamed (peptide)
chain: FTAEFLEKV
B17: unnamed (peptide)
chain: KLLPYIVGV
B18: unnamed (peptide)
chain: ALAKPPVVSV
B19: unnamed (peptide)
chain: KADSVVVLL
B20: unnamed (peptide)
chain: VLWDRTFSL
B21: unnamed (peptide)
chain: KMDDPDYWRTV
B22: unnamed (peptide)
chain: IQHSEFEEV
B23: unnamed (peptide)
chain: TLLSNIQGV
B24: unnamed (peptide)
chain: VLDDKLYVV
B25: unnamed (peptide)
chain: ILLDERGQIKL
B26: unnamed (peptide)
chain: TVMGKIFAV
B27: unnamed (peptide)
chain: GLIGVGLINV
B28: unnamed (peptide)
chain: NMLPQIFRV
B29: unnamed (peptide)
chain: HLAELIAEL
B30: unnamed (peptide)
chain: NIFPNPEATFV
B31: unnamed (peptide)
chain: FVLPELPSV
B32: unnamed (peptide)
chain: KVIDEIYRV
B33: unnamed (peptide)
chain: VLFQGKIGL
B34: unnamed (peptide)
chain: ALLPQNHKL
B35: unnamed (peptide)
chain: VLLESEQFL
B36: unnamed (peptide)
chain: ALRETVVEV
B37: unnamed (peptide)
chain: TQILSVPKV
B38: unnamed (peptide)
chain: VLIDTPGQIEV
B39: unnamed (peptide)
chain: QLVPALAKV
B40: unnamed (peptide)
chain: YLPDIIKDQKA
B41: unnamed (peptide)
chain: LLLDVPTAAV
B42: unnamed (peptide)
chain: KLHGVNINV
B43: unnamed (peptide)
chain: FAIDPHLLLSV
B44: unnamed (peptide)
chain: VILPTVHEV
B45: unnamed (peptide)
chain: ILSGVIRSV
B46: unnamed (peptide)
chain: SLPDFGISYV
B47: unnamed (peptide)
chain: SLWFKPEEL
B48: unnamed (peptide)
chain: TLLESIRQA
B49: unnamed (peptide)
chain: YLNVQVKEL
B50: unnamed (peptide)
chain: ILAEEPIYIRV
B51: unnamed (peptide)
chain: AALEEADKMFL
B52: unnamed (peptide)
chain: FGYPFRLNEA
B53: unnamed (peptide)
chain: GLVDKLQAL
B54: unnamed (peptide)
chain: LMISRTPEV
B55: unnamed (peptide)
chain: FTQDSNYLL
B56: unnamed (peptide)
chain: LLAEDDELHL

Whole data set: some 1,100 sequences, median “thermal melting temperature (Tm) of peptide-HLA complex” near 58, cut for the lowest 2% near 42. This is one part of the list.
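Note: cell lysates heated 10 min at 37–73 °C, remaining pHLA pulled down with pan-class I antibody, peptides quantified by DIA-MS versus 37 °C, Tm where half the complex is lost.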

For the experiment, the target named is HLA-A*02:01. Nature of the experiment: thermal melting temperature (Tm) of peptide-HLA complex; higher = more thermostable pHLA complex. As to conditions: C1R-A*02:01.
In turn, B1 returned a thermal melting temperature of 58.6 °C.

Take B2: the thermal melting temperature is 60.1 °C.

Consider B3, for which the thermal melting temperature is 62 °C. Next, B4: 57.5 °C. Next, B5: 59.5 °C; B6: 64.2 °C; B7: 58.1 °C. For B8, the thermal melting temperature came out at 59.1 °C.

With B9, the thermal melting temperature amounted to 63.9 °C.

Take B10: the thermal melting temperature came to 57.8 °C. Next, B11: 57.6 °C. Next, B12: 57 °C; B13: 57.6 °C; B14: 55.2 °C.

B15 yielded a thermal melting temperature of 58.5 °C. Next, B16: 60.1 °C; B17: 63.2 °C; B18: 62.2 °C. Then B19, with 57.9 °C; and B20, with 65.3 °C. Then B21, with 60 °C. B22: the thermal melting temperature is 52.1 °C. Next, B23: 62.3 °C; B24: 61.3 °C; B25: 57 °C. Next, B26: 61.8 °C.

B27 had a thermal melting temperature of 61.7 °C. Then B28, with 58.4 °C; and B29, with 62.4 °C. Then B30, with 55.8 °C. Then B31, with 59.5 °C. In turn, B32 gave a thermal melting temperature of 54.5 °C. Next, B33: 55.8 °C; B34: 55 °C; B35: 56.7 °C. B36 gave a thermal melting temperature of 52.1 °C. Next, B37: 54.1 °C. Next, B38: 58.6 °C; B39: 58 °C. Next, B40: 55.4 °C; B41: 55.9 °C. B42 gave a thermal melting temperature of 60 °C. Then B43, with 58.8 °C; and B44, with 60.9 °C.

Turning to B45, the thermal melting temperature worked out at 56.6 °C. Next, B46: 57.3 °C; B47: 55 °C. For the sequence B48, the thermal melting temperature turned out to be 47.4 °C. Consider B49, for which the thermal melting temperature was 55.7 °C.

B50 registered a thermal melting temperature of 58.1 °C. The sequence B51 showed a thermal melting temperature of 53.3 °C. Then B52, with 53.6 °C; and B53, with 55.6 °C. Next, B54: 57.4 °C; B55: 49.1 °C.

In turn, B56 had a thermal melting temperature of 44.2 °C.
